Data as given in the antibiotic and cytotoxicity screens of Wong et al. (2023).
Some of the results follow.

What was measured:
HSkMC = human skeletal muscle cells; test: cytotoxicity call (relative viability < 0.9); details: 10 µM
HepG2 = test: cytotoxicity call (relative viability < 0.9); details: 10 µM
S. aureus RN4220 = test: growth inhibition call (relative growth <= 0.2); details: 50 µM

Compound	cytotoxicity call (HSkMC)	cytotoxicity call (HepG2)	growth inhibition call (S. aureus RN4220)
CCS(=O)(=O)N1C[C@]2(C1)CN([C@@H](CO)c1[nH]c3cc(ccc3c12)OC)S(=O)(=O)c1cn(cn1)C	inactive	inactive	inactive
C[C@H]1CCCN(C(=O)N2c3ccccc3Sc3ccccc32)C1	inactive	inactive	inactive
Cc1noc(C)c1S(=O)(=O)N(C)C[C@@H]1OCc2cn(nn2)CCCC(=O)N([C@H](C)CO)C[C@H]1C	inactive	inactive	inactive
COc1ccc(S(=O)(=O)N(C)C[C@H]2OCCCC[C@H](C)Oc3ccc(NC(=O)Nc4ccc(C(F)(F)F)cc4)cc3C(=O)N([C@@H](C)CO)C[C@@H]2C)cc1	inactive	inactive	inactive
C[C@H]1CC/C=C\[C@H]2O[C@@]34C=CCN(c5ccc(Cl)cc5)C(=O)[C@H]3N(CCO)C(=O)[C@]4(C)[C@@H]2C(=O)O1	inactive	inactive	inactive
C[C@@H]1CN([C@H](C)CO)C(=O)c2cc(NC(=O)Cc3ccccc3)ccc2O[C@@H]1CN(C)S(=O)(=O)c1cccs1	inactive	inactive	inactive
C=CCC[C@H](Cc1ccc(F)cc1)C(=O)O[C@@H](CNC(=O)[C@@H](CC=C)CC(=O)N[C@@H](CO)Cc1ccccc1)c1ccccc1	inactive	inactive	inactive
CC(=O)n1cc([C@H]2C=C(C(=O)N3CCN(Cc4ccccc4)CC3)O[C@@H](OCc3ccc(CO)cc3)C2)c2ccccc21	inactive	inactive	inactive
C[C@@H]1CCCCO[C@@H](CN(C)C(=O)Nc2ccc3c(c2)OCO3)[C@@H](C)CN([C@H](C)CO)C(=O)c2cc(NC(=O)Nc3ccc(C(F)(F)F)cc3)ccc2O1	inactive	inactive	inactive
CN(C)[C@@H]1C(=O)[C@@H](C(N)=O)C(=O)[C@@]2(O)C(=O)[C@@H]3C(=O)c4c(O)c(NC(=O)CN5CCCC5)cc(F)c4C[C@H]3C[C@@H]12	inactive	inactive	active
CCN(CC)C(=S)SSC(=S)N(CC)CC	active	active	active
CS(=O)(=O)N1CCOC[C@]2(CN(c3ncccn3)CCO2)C1	inactive	inactive	inactive
CC1OC(OC2C(Oc3cc(O)c4c(c3)OC(c3ccc(O)cc3)CC4=O)OC(CO)C(O)C2O)C(O)C(O)C1O (stereo not given)	inactive	inactive	inactive
C=CCOC(=O)[C@@H]1[C@H]2C(=O)O[C@H](c3ccccc3)[C@H](c3ccccc3)N2[C@H](c2ccc(OCCOC(=O)[C@@H]3C[C@@H]4C(=O)N[C@@H](CC(C)C)C(=O)N4[C@@H]3c3ccc(O)cc3)cc2)[C@@]12C(=O)Nc1ccc(I)cc12	inactive	inactive	inactive
C[C@H](CO)N1C[C@H](C)[C@H](CN(C)Cc2ccc(-c3ccccc3)cc2)Oc2ccc(NC(=O)Nc3ccc(C(F)(F)F)cc3)cc2CC1=O	active	active	inactive
C[C@H](CO)N1C[C@H](C)[C@@H](CN(C)Cc2ccc(Oc3ccccc3)cc2)Oc2ccc(NC(=O)Nc3ccccc3)cc2C1=O	inactive	active	inactive
COC(=O)C[C@@H]1C(C)(C)[C@H](OC(C)=O)[C@@H]2[C@@H](OC(C)=O)[C@]34O[C@@]2(O)[C@]1(C)[C@H]3CC[C@]1(C)C4=CC(=O)O[C@H]1c1ccoc1	inactive	inactive	inactive
C=CCOC(=O)[C@H]1[C@@H]2C(=O)O[C@@H](c3ccccc3)[C@@H](c3ccccc3)N2[C@@H](c2ccc(OCCOC(=O)[C@H]3C[C@H]4C(=O)N[C@@H](CCCC[N+](C)(C)C)C(=O)N4[C@H]3c3cccc(OCCO)c3)cc2)[C@]12C(=O)Nc1ccccc12	inactive	inactive	inactive
C[C@@H]1CCCCO[C@H](CN(C)S(=O)(=O)c2ccccc2)[C@@H](C)CN([C@H](C)CO)C(=O)c2cc(NC(=O)NC3CCCCC3)ccc2O1	inactive	inactive	inactive
CC(C)NC(=O)Nc1ccc2c(c1)CC(=O)N([C@@H](C)CO)C[C@@H](C)[C@@H](CN(C)S(=O)(=O)c1ccc(Cl)cc1)O2	inactive	inactive	inactive

Compound	cytotoxicity call (HSkMC)	cytotoxicity call (HepG2)	growth inhibition call (S. aureus RN4220)
C[C@@H]1CN([C@H](C)CO)S(=O)(=O)c2ccc(C#CC(C)(C)O)cc2O[C@H]1CN(C)Cc1ccccc1	inactive	inactive	inactive
C[C@@H]1CN([C@@H](C)CO)C(=O)c2cc(NC(=O)Nc3ccc(F)cc3)ccc2O[C@H]1CN(C)Cc1ccc(-c2ccccc2)cc1	active	active	inactive
COc1ccc(C[C@H](NC(=O)[C@H](C)NC(=O)CN2CCOCC2)C(=O)N[C@@H](Cc2ccccc2)C(=O)[C@@]2(C)CO2)cc1	active	active	inactive
C[C@@H]1CCCCO[C@@H](CN(C)C(=O)Nc2cccc3ccccc23)[C@H](C)CN([C@@H](C)CO)C(=O)c2cc(NC(=O)Nc3ccccc3)ccc2O1	inactive	inactive	inactive
COc1ccc(S(=O)(=O)N(C)C[C@@H]2OCc3cnnn3CCCC(=O)N([C@@H](C)CO)C[C@H]2C)cc1	inactive	inactive	inactive
C[C@@H](O)C#Cc1cnc2c(c1)C(=O)N([C@@H](C)CO)C[C@H](C)[C@H](CN(C)Cc1cncnc1)O2	inactive	inactive	inactive
Cn1ncc2c1CCCC2=O	inactive	inactive	inactive
COc1ccc(S(=O)(=O)Nc2ccc3c(c2)C(=O)N([C@@H](C)CO)C[C@H](C)[C@@H](CN(C)S(=O)(=O)c2cccs2)O3)cc1	inactive	inactive	inactive
Cc1ccc(S[C@]2(C(=O)NC3CC3)CC(=O)N(Cc3cc(C(F)(F)F)cc(C(F)(F)F)c3)[C@@H]2c2ccc(CO)cc2I)cc1	inactive	inactive	inactive
CO[C@@H]1CN(C)C(=O)c2ccc(NS(C)(=O)=O)cc2OC[C@H](C)N(C(=O)c2ccc3c(c2)OCO3)C[C@H]1C	inactive	inactive	inactive
COc1c2ccoc2c(OC)c2oc(=O)ccc12	inactive	active	inactive
COc1ccc2nc3ccc(Cl)cc3c(SCCCN)c2c1	inactive	inactive	inactive
COc1cc2ncnc(Nc3ccc(F)c(Cl)c3)c2cc1OCCCN1CCOCC1	inactive	active	inactive
CC(C)NC(=O)Nc1cccc2c1O[C@@H](CN(C)Cc1ccc(C(=O)O)cc1)[C@@H](C)CN([C@@H](C)CO)C2=O	inactive	inactive	inactive
C[C@@H]1CCCCO[C@H](CN(C)S(=O)(=O)c2ccc(F)cc2)[C@@H](C)CN([C@@H](C)CO)C(=O)c2cc(NC(=O)Nc3cccc4ccccc34)ccc2O1	inactive	inactive	inactive
Cc1ccc(S[C@]2(C(=O)NCC(F)(F)F)CC(=O)N(C3CCCCC3)[C@@H]2c2ccc(CO)cc2I)cc1	inactive	inactive	inactive
C[C@@H]1CN([C@@H](C)CO)C(=O)c2cc(NC(=O)Cc3cn(C)c4ccccc34)ccc2O[C@@H]1CN(C)C(=O)Nc1cccc2ccccc12	active	active	inactive
C[C@H]1CCCCO[C@H](CN(C)Cc2ccc(C(F)(F)F)cc2)[C@@H](C)CN([C@@H](C)CO)C(=O)c2cc(NC(=O)Nc3ccc(F)cc3)ccc2O1	inactive	active	inactive
COC1=C(OC)C(=O)C(C/C=C(\C)CC/C=C(\C)CC/C=C(\C)CC/C=C(/C)CC/C=C(\C)CC/C=C(\C)CC/C=C(\C)CC/C=C(\C)CC/C=C(\C)CCC=C(C)C)=C(C)C1=O	inactive	inactive	inactive
C[C@@H]1CN([C@H](C)CO)C(=O)c2cccc(NS(=O)(=O)c3cn(C)cn3)c2O[C@H]1CN(C)S(=O)(=O)c1ccc(Cl)cc1	inactive	inactive	inactive
